In PubChem BioAssay AID2708 (National Center for Advancing Translational Sciences (NCATS), 2010):
Inconclusive means that the source gave no clear call. Such entries were picked first, then a sample of the others. Potencies of inconclusive entries are left out as doubtful fits. Activity calls are given as the source filed them. The call rests on the fitted dose curve; in most records, active means well fitted inhibition curve with a large enough effect; inconclusive means small, poorly fitted or top-dose-only effect; inactive means no such curve, though single readings can be large or run the other way.

Each molecule was assayed against ATP-dependent DNA helicase Q1 (Homo sapiens) (UniProt P46063) (assay: Confirmation qHTS Assay for Inhibitors of RecQ-Like Dna Helicase 1 (RECQ1)). Conditions: RECQ1 helicase DNA unwinding, fluorescence; series mostly up to 229 µM; activity change, negative = inhibition: at the top concentration.
Summary of the method: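 50 nM RECQ1T1 preincubated 15 min with compound in Tris pH 8.0 buffer with MgCl2, DTT, Tween-20 and 2.5 ug/ml poly(dI-dC); started with 200 nM TAMRA/BHQ-2 forked duplex and 2 mM ATP. Unwinding read as fluorescence (525/598 nm), two reads 2 h apart.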
Further: nearly all actives have a fitted effect of over 45% in size.
On the % scale 0 is the no-effect control and ±100 the full control effect; potency means the concentration at half of the fitted maximal effect; tags describe the fitted curve by direction and shape.

UniProt P46063, sequence (P46063 whole entry, looked up): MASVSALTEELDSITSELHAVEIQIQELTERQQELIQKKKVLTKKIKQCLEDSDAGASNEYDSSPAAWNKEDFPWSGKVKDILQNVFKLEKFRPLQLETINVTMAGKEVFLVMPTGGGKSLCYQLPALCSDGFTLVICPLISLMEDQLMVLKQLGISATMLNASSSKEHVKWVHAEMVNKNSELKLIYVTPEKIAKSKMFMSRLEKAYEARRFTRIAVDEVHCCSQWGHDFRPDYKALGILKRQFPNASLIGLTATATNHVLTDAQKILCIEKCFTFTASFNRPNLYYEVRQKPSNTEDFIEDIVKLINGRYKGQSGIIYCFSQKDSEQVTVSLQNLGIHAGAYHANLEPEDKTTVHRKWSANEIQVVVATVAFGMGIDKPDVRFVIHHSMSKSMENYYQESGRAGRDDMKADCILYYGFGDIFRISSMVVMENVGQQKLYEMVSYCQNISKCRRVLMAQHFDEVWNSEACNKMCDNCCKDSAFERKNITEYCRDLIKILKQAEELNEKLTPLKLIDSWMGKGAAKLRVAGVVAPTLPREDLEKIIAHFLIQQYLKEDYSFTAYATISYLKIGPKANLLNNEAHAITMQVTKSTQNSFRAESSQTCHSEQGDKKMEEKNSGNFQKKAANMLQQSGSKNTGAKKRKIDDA

SMILES	Potency	activity change, negative = inhibition
CC(=O)Oc1ccc(C(=O)Nc2ccc3c(c2)C(=O)N(CCC(=O)O)C3=O)cc1	inconclusive [inhibitor, single point]	
COc1ccc(CN2C(=O)c3ccccc3C2C(=O)NC2CCCC(C)C2C)c(OC)c1 (stereo unspecified)		inactive: -5.94% [at 114 µM]
O=C(Cn1nnc2ccccc2c1=O)N[C@@H](Cc1c[nH]c2ccccc12)C(=O)O		inactive: 6.24%
O=C(NC(Cc1ccccc1)C(=O)O)/C(=C/c1ccccc1)NC(=O)c1cccc(Br)c1 (stereo unspecified)		inactive: 10.5%
O=C(O)CN=C1CC(c2ccccc2)CC(=O)/C1=C(/O)CCCN1C(=O)c2ccccc2C1=O (stereo unspecified)	inconclusive [inhibitor, full curve, poor fit]	
Cc1ccc(O)c(N=Cc2cc(Cc3ccccc3)cc([N+](=O)[O-])c2O)c1	active: 56.2 µM	
O=C(O)C1Nc2c(O)cccc2C2C=CCC12 (stereo unspecified)	inconclusive [inhibitor, full curve]	
O=C(/C=C/c1ccc(Br)cc1)c1ccc(NC(=O)c2ccco2)cc1	inconclusive [inhibitor, full curve]	
COCCn1c(C)cc(C(=O)CSc2nnc(-c3cccnc3)n2-c2ccccc2F)c1C	inconclusive [inhibitor, single point]	
CCCCc1cc(=O)oc2cc(C)c(CN3CCCC3)c(O)c12	active: 20 µM	
CCC(C)NC(=O)c1ccccc1NC(=O)c1ccc(CSc2ccc(C)cc2)cc1 (stereo unspecified)		inactive: -7.93% [at 114 µM]
NC(=O)CSc1nc2scc(-c3ccco3)c2c(=O)n1-c1ccccc1	inconclusive [inhibitor, single point]	
CNC[C@H](O)c1ccc(O)c(O)c1	inconclusive [inhibitor, single point]	
CC(=O)OCCNc1cc(SCc2ccco2)c2nonc2c1[N+](=O)[O-]		inactive: 19.8% [at 114 µM]
O=C(NCc1ccco1)C(=O)NCC1OCCN1S(=O)(=O)c1cc(F)ccc1F (stereo unspecified)		inactive: 5.84% [at 114 µM]
COc1ccc(Nc2ccc(OC)cc2)cc1	inconclusive [inhibitor, partial curve, poor fit]	
C(=C\c1ccco1)/c1ccc2ccccc2n1	inconclusive [inhibitor, single point]	
O=C1NC(=S)S/C1=C\C=C\c1ccc([N+](=O)[O-])o1	inconclusive [inhibitor, partial curve]	

SMILES	Potency	activity change, negative = inhibition
C=CCNC(=O)c1onc(CSc2cccc(OC)c2)c1C(=O)O		inactive: 6.26%
CC1(C)CC(=O)/C(=C(\O)CCCN2C(=O)c3ccccc3C2=O)C(=NCC(=O)O)C1		inactive: -2.21%
Nc1nc2c(ncn2COC(CO)CO)c(=O)[nH]1		inactive: -4.18% [at 69.1 µM]
O=C(N/N=C/c1cccc(F)c1)c1cc(-c2ccco2)nc2ccccc12	active: 28.2 µM	
Oc1ccc(C2CNCCc3c2cc(O)c(O)c3Cl)cc1 (stereo unspecified)	inconclusive [inhibitor, full curve, poor fit]	
CSc1ccc(/C=C(/Sc2nnc(-c3ccccc3)o2)C(=O)O)cc1		inactive: -3.95%
CC1CCN(S(=O)(=O)c2ccc(NC(=O)N3c4ccccc4Sc4ccccc43)cc2)CC1		inactive: -10.4%
COc1cc(/C=N/N2C(=O)CSC2=S)cc(Br)c1O	inconclusive [inhibitor, partial curve]	
COc1ccccc1C(=O)Nc1ccc(-c2nnc(SCC(=O)O)n2C)cc1		inactive: 17.3%
COC(=O)Nc1ccc(S(=O)(=O)N2CCCC(C(=O)Nc3cccnc3)C2)cc1 (stereo unspecified)		inactive: 9.5%
CC(C)CNC1=CC(=O)CC(c2ccco2)C1 (stereo unspecified)	inconclusive [inhibitor, single point]	
CC1=Nc2ccccc2N=C(NC(=O)CSc2nnnn2-c2ccccc2)C1c1ccccc1 (stereo unspecified)		inactive: 0.324%
O=C1C(=O)C(c2ccc(O)cc2O)Oc2cc(O)cc(O)c21 (stereo unspecified)	inconclusive [inhibitor, partial curve]	
O=C(COC(=O)Cc1ccccc1F)Nc1cccc(S(=O)(=O)NC2=NCCCCC2)c1		inactive: 13.1% [at 114 µM]
CCCSC1=N/C(=C\c2ccc([N+](=O)[O-])o2)C(=O)S1		inactive: -4.58% [at 114 µM]
CC(C)Nc1ccc(Nc2ccnc3cc4ccccc4cc23)cc1	active: 22.4 µM	
Cc1ccc(C(=O)Nc2ccccc2C(=O)NC(Cc2c[nH]c3ccccc23)C(=O)O)cc1 (stereo unspecified)		inactive: 14%
O=C(O)CC/C(=C\c1ccc(N2CCOCC2)c([N+](=O)[O-])c1)c1nc2ccccc2s1	inconclusive [inhibitor, single point]	
